Measurements published in article PMC4336329 (PLoS ONE, 2015).
In all, about 310,000 compounds went through this assay and about 2,200 (0.71%) showed an effect of 50% or more. Effects have a minus sign here. The list shows a part of the results.

The compounds below were run against human ether-à-go-go-related gene (hERG) potassium channel (human, UniProt Q12809) (assay: primary screen, population patch clamp on CHO cells stably expressing hERG).
Sequence of human ether-à-go-go-related gene (hERG) potassium channel (Q12809 whole entry, looked up): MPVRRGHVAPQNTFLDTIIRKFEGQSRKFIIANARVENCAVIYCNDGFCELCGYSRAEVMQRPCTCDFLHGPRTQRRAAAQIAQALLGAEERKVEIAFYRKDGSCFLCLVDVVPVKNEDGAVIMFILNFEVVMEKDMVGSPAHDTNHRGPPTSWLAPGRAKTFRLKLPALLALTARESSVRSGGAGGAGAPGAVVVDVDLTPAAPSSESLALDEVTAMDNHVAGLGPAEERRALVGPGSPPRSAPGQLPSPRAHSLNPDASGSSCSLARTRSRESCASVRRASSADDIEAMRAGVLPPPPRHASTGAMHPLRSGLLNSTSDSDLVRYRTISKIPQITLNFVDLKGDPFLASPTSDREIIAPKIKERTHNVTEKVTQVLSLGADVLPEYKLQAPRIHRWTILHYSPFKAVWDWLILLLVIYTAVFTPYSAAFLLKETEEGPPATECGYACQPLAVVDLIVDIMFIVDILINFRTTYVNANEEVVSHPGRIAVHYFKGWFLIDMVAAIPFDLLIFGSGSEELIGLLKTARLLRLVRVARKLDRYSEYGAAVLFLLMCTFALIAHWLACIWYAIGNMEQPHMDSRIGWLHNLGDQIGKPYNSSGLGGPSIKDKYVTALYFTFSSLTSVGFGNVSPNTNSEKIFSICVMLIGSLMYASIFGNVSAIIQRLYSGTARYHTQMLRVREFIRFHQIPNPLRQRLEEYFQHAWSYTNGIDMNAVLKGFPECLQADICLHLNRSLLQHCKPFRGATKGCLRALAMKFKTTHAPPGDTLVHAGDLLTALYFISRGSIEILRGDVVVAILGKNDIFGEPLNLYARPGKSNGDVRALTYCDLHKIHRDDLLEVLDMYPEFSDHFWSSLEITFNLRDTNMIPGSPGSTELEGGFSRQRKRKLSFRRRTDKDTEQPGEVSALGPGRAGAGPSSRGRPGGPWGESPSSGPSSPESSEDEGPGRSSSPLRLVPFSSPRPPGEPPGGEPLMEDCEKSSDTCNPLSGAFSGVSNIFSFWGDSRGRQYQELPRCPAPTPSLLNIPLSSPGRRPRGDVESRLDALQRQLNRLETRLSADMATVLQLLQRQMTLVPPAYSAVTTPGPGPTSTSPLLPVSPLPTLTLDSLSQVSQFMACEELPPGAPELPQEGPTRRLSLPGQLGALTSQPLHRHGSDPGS

Compound | hERG current change (%, negative = inhibition) at 1uM
Cn1c(=O)n(C)c2cc(NC(=O)c3ccc(F)cc3)c(Br)cc21 | 12.5%
O=C(NCCN1CCOCC1)c1cc(-c2ccc(Cl)cc2Cl)on1 | 2.97%
Cc1cc(C)c(S(=O)(=O)N2CCCCC2CCNC(=O)C(=O)NCc2ccccn2)c(C)c1 (centres unmarked) | 15.1%
CCOc1ccc2[nH]c3c(NCCc4ccc(OC)c(OC)c4)ncnc3c2c1 | -0.786%
CCn1nc(C)c(NC(=O)c2cc(Br)ccc2Cl)c1C | 6.77%
COC(=O)c1ccc(S(=O)(=O)NCc2ccco2)o1 | 9.18%
COc1ccc(C(NC(C)=O)c2c(O)ccc3ccccc23)cc1OC (centres unmarked) | 5.83%
Nc1ccnn1Cc1cccnc1 | 9.35%
COCc1cc(CN2CCCC2)c(O)c2ncccc12 | 10.5%
COc1cc(-c2nc3oc4ccccc4c(=O)c3c(=O)n2Cc2ccco2)cc(OC)c1OC | 15.4%
CC1=C(C(=O)OC(C)C)C(c2cncc(-c3ccc(F)cc3)c2)C(C#N)=C(N)O1 (centres unmarked) | 9.33%
CC(=O)Nc1ccc(S(=O)(=O)Nc2cccc(-c3nc4cc(C)ccc4o3)c2)cc1 | 8.09%
CC(C)C(=O)N1c2ccccc2NC2=C(C(=O)CCC2)C1c1ccc(N(C)C)cc1 (centres unmarked) | 8.65%
CNC(=O)Nc1ccc(C2SCCS2)cc1 | 14.6%
CC(=O)c1ccc2noc(-c3ccc(C)cc3)c2c1 | 11%
Cc1cccc(C(=O)O/N=C(\N)c2ccc(Br)cc2)c1 | 11.8%
Cc1ccc(NC(=O)Cc2nn(C)c(=O)c3ccccc23)cc1F | 14.4%
COc1ccccc1NS(=O)(=O)c1cc([N+](=O)[O-])ccc1N/N=C/c1c(C)[nH]c2ccccc12 | 10.2%
CCOC(=O)C1CCCN(Cc2ccccc2OCC)C1 (centres unmarked) | 1.34%
CN1C(=S)SC2CS(=O)(=O)CC21 (centres unmarked) | 9.97%
NC(=O)C1CCN(C(=O)c2cccc3ccccc23)CC1 | 10.7%
Cc1cnccc1CN(C)Cc1cn(C)nc1-c1ccc(Oc2ccccc2)cc1 | 12%
COc1cc(OC)cc(C(=O)NNC(=O)c2ccccn2)c1 | 14.8%

Compound | hERG current change (%, negative = inhibition) at 1uM
CN(c1ccccc1)c1nc2ccsc2c(=O)s1 | 14%
CCOC(=O)c1ccc(NC(=O)CNC(=O)c2ccco2)cc1 | 16.1%
CC1(C)CC(=O)N(c2ccc(C#N)cc2)C(=O)C1 | 13.2%
CN1CCN(S(=O)(=O)c2ccc(NC(=O)C3CCCO3)cc2)CC1 (centres unmarked) | -3.45%
CC(C)(C)NC(=O)CCC1COc2ccccc2O1 (centres unmarked) | 1.58%
CCOc1ccc(/C=C(\C#N)C(=O)NCC2CCCO2)cc1OCC (centres unmarked) | 12.9%
O=C(NCc1ccco1)C1CCCN1C(=O)Nc1ccccc1 (centres unmarked) | 3.15%
O=[N+]([O-])c1cc(-c2ccc(/C=N/n3cnnc3)o2)ccc1Cl | 5.06%
Cn1c(SCC(=O)c2ccccc2)ncc(C(=O)Nc2ccc(F)cc2)c1=O | 7.11%
COc1ccccc1N1CCN(CCc2n[nH]c(=S)n2-c2ccccc2)CC1 | 7.47%
Cc1ccc(N2CC(C(=O)Nc3nnc(SCCC4OCCO4)s3)CC2=O)cc1 (centres unmarked) | 13%
CNC(=O)/C(=C\c1cccc(Oc2ccccc2)c1)NC(=O)c1ccccc1 | 11.5%
CCOP(=O)(OCC)C(O)c1ccc2c(c1)OCO2 (centres unmarked) | 11.5%
Cc1ccc(C)c(OCC(=O)N(C)CC(=O)Nc2ccc(Cl)c(C(F)(F)F)c2)c1 | 6.3%
O=C(NCCCCc1ccccc1)C1CC(c2ccccc2[N+](=O)[O-])=NO1 (centres unmarked) | -1.68%
COc1ccc(NC(=O)C2CCCN(S(=O)(=O)c3ccc4c(c3)CCCN4C(C)=O)C2)cc1Cl (centres unmarked) | 9.41%
Cc1nn(CC(=O)NCCCc2ccccc2)c(C)c1[N+](=O)[O-] | 5.66%
CCc1nc2ccccc2c(=O)n1/N=C/c1ccc(OC)cc1 | 3.37%
O=C(CN1C(=O)NC2(CCCC2)C1=O)Nc1nc(-c2ccc(F)cc2)cs1 | 8.2%
CC(C)(C)c1ccc(CNc2cc(N3CCOCC3)ccc2[N+](=O)[O-])cc1 | 19.2%
CC1CCCN(C(=O)CN2C3CCC2CC(O)(c2ccc(F)cc2)C3)C1 (centres unmarked) | 9.73%
COc1ccc(OC(=O)COc2ccc(C)cc2)cc1 | 8.57%
CCOC(=O)c1ccc(NC(=O)CC2SC3=NCCN3C2=O)cc1 (centres unmarked) | 13.5%

Compound | hERG current change (%, negative = inhibition) at 1uM
CCc1cc(=O)oc2cc(OCC(=O)NC3CC(C)(C)NC(C)(C)C3)ccc12 | 17.1%
Cc1ccc(NC(=S)N(CCCN(C)C)Cc2cc3cc4c(cc3[nH]c2=O)OCO4)c(C)c1 | 2.5%
CN1C(C(=O)NCc2cccc(C(F)(F)F)c2)CC2Cn3c(nc4cc(Cl)c(Cl)cc43)C21 (centres unmarked) | 11.6%
CN1CCN(C(=O)c2ccccc2N(Cc2ccccc2)S(C)(=O)=O)CC1 | 7.07%
CCN(c1ccccc1)S(=O)(=O)c1ccc2c(c1)CCCN2C(C)=O | 13.9%
Cc1[nH]c2ccccc2c1/C=N/NC(=O)CNC(=O)c1ccccc1 | -6.14%
CC(=O)Nc1nc2cc(C(N)=O)ccc2s1 | -0.145%
CSC1=NCCN1C(=O)COc1ccc2ccccc2c1 | 13.1%
CNc1nc(C)nc(-n2nc(C)cc2C)n1 | 9.5%
CCCCOc1ccc(-c2nc(SCC(N)=O)n[nH]2)cc1 | 3.92%
O=C(Cc1cccc2ccccc12)N1CCN(c2ncccn2)CC1 | 1.79%
O=C(Cc1ccccc1)N1CCN(CC2CC=CCC2)CC1 (centres unmarked) | 8.9%
O=C(NCCN1CCN(c2ccccc2)CC1)C1CCN(S(=O)(=O)c2cccc3nonc23)CC1 | 2.62%
O/N=C/c1ccccc1Oc1ccc(Cl)cc1 | 10.1%
CCNc1c(NC(C)=O)c(=O)oc2ccccc12 | 18.5%
O=C(NCc1ccc(F)cc1)C1CCCN(C(=O)Nc2ccccc2)C1 (centres unmarked) | 4.92%
Cc1c(CN2CCc3c([nH]c4ccccc34)C2C2CCCCC2)cnn1C (centres unmarked) | 1.51%
CC(C)(C)c1ccc(C(=O)NC(Cc2ccccc2)C(=O)O)cc1 (centres unmarked) | -11.4%
Cc1cccc(CC(=O)c2c[nH]c3ccccc23)c1 | 11.8%
CCCCn1c(CN2CCN(C(=O)OCC)CC2)nc2c1c(=O)n(C)c(=O)n2C | 1.39%
Cn1c(SCc2nc(-c3ccc(Cl)cc3)no2)nnc1-c1ccco1 | -11.5%
O=C1C(=O)N(CCN2CCCCC2)c2ccccc21 | 2.06%
COCc1cc(Sc2ccc(Cl)cc2Cl)nc(-c2ccccc2)n1 | 15.7%

Compound | hERG current change (%, negative = inhibition) at 1uM
Cc1cc([N+](=O)[O-])nn1CC(=O)N1CCCc2ccccc21 | 16.8%
Cc1ccccc1Cn1nnc(-c2ccc(C(=O)O)cc2)n1 | 16.2%
Cc1csc(NC(=O)C2CC(=O)N(c3ccc(C)c(C)c3)C2)n1 (centres unmarked) | 6.44%
CNc1nnc(-c2ccncc2)s1 | 5.14%
Cc1cc(C)n(C(=O)CCNC(=O)c2ccccc2Cl)n1 | 11.7%
Cc1sc[n+](CC(=O)c2ccc(Br)cc2)c1C.[Br-] | 2.98%
CC(C)Oc1cccc(C(=O)Nc2ccc(N3CCN(C)CC3)cc2)c1 | -0.048%
O=S(=O)(Nc1ccccc1)c1ccc(Oc2ncc(C(F)(F)F)cc2Cl)cc1 | -0.721%
O=C(CCN1CCCC1)Nc1cccc(Br)c1 | -6.19%
CCOc1ccc(CN(C)C(=O)CCc2ccc(S(=O)(=O)N3CCCCCC3)cc2)cc1 | -4.81%
CS(=O)(=O)c1ccc(-c2cn3cc(C(=O)O)ccc3n2)cc1 | 9.57%
CC1CCCCC1NC(=O)c1ccncc1 (centres unmarked) | 10.7%
CCC(C)[C@H](NS(=O)(=O)c1ccc(C)cc1)C(=O)N1CCC(C(=O)N2CCC(C(=O)OC)CC2)CC1 (some centres unmarked) | 6.12%
Cc1ccc(C(=O)Cn2c3[n+](c4ccccc42)CC(O)CS3)cc1.[Br-] (centres unmarked) | 7%
COc1cccc(NC(=O)COC(=O)c2nc3nccc(C)n3n2)c1 | 4.77%
CC1=C(C(=O)Nc2ccccn2)C(c2cccnc2)n2nnnc2N1 (centres unmarked) | 11%
Cc1ccc(NC(=O)CN(C)CC(=O)Nc2ccccc2Oc2ccccc2)cc1.O=C(O)C(=O)O | 19.4%
O=C(N/N=C/c1ccccc1Cl)C1CC1 | 5.67%
O=C(Nc1cccc(Cl)c1)OCCN1CCN(Cc2ccccc2)CCC1=O | -4.66%
Cc1[nH]c(C)c(S(=O)(=O)Nc2ccc(OC(F)(F)F)cc2)c1C(=O)N1CCCCC1 | -4.47%
COc1ccc(N2C(=O)CC(N3CCN(c4ccc(Cl)cc4)CC3)C2=O)cc1 (centres unmarked) | 8.76%
CCc1ccccc1NC(=S)NCc1cccn1C | 14.5%
CCSc1nnc2nc3[nH]c4c(C)cccc4c3nn12 | 14.8%
